Assay results from PubChem BioAssay AID2676 (National Center for Advancing Translational Sciences (NCATS), 2010).
Among all 370,000 compounds or so, about 1,100 (0.3%) were called active. The inconclusive results got no clear call from the source; some entries with a clear call stand among them for comparison. Calls follow the shape of the dose curve; as a rule, active = well fitted activation curve with a large enough effect; inconclusive = small, poorly fitted or top-dose-only effect; inactive = flat fitted curve, though single readings scatter. Potencies beside an inconclusive call are fits to weak or partial responses and may not hold up.

What follows are molecules tested against Relaxin receptor 1 (Homo sapiens) (UniProt Q9HBX9) (assay: qHTS Assay for Agonists of the Relaxin Receptor RXFP1). Conditions: HEK293T-RXFP1 cAMP TR-FRET, 30 min; series mostly up to 57.5 µM.
Chain of UniProt Q9HBX9 (Q9HBX9 whole entry, looked up): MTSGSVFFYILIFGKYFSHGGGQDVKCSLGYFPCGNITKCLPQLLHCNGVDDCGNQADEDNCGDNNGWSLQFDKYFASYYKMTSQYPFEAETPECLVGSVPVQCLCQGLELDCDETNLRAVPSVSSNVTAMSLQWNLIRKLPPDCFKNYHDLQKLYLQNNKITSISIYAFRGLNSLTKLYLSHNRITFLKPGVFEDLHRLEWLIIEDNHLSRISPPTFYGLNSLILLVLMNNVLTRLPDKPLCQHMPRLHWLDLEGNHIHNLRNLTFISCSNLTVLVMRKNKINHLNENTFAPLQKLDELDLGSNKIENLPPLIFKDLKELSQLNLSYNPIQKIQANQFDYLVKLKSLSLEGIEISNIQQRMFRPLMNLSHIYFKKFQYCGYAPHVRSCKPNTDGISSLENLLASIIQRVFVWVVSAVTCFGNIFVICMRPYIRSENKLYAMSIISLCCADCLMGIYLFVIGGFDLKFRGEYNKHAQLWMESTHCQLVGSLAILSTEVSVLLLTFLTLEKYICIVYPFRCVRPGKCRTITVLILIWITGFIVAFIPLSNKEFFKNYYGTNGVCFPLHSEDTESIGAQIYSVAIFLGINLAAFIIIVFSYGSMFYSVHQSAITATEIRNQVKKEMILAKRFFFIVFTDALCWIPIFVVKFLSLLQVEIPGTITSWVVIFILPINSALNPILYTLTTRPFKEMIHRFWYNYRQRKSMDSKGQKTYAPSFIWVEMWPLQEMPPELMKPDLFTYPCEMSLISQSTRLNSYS
Procedure, shortened: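 cAMP rise read by TR-FRET after 30 min, 37C compound exposure (up to 58 uM) in RXFP1-transfected HEK293 cells with Ro 20174 present. EC50 from Hill-equation fits, with 29 nM porcine relaxin as 100% and buffer as basal.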
Also: nearly all actives have a fitted effect of over 60% in size.
Potency is read from the fitted curve at half-maximal effect; tags tell the direction and shape of the fitted curve.

How did the Potency turn out when `O=C(c1ccccc1Cl)N1CCNCC1` was run?
Its Potency is inconclusive: 35.5 µM [activator, single point].

For `CCOC(=O)/C(=N\Nc1ccc(Cl)cc1)c1csc(Nc2ccccc2)n1`, which Potency is on record?
The Potency was “inactive”.

Which Potency does the source give for `CCS(=O)(=O)c1nc(S(=O)(=O)c2ccc(C)cc2)c(N2CCN(C)CC2)s1` here?
The Potency was active: 25.1 µM.

Which Potency does the source give for `COc1ccc(-c2cc(-c3cccs3)c(C#N)c(SCC(=O)NCc3ccccc3)n2)cc1` here?
The Potency was inconclusive: 35.5 µM [activator, single point].

With `Cc1ccc(-n2nc3c(SCCN4CCOCC4)nnc(C)c3c2C)cc1` as the molecule, how does the Potency read?
The Potency was inconclusive: 28.2 µM [activator, partial curve].

Which Potency does the source give for `COc1cccc2cc(C(=O)NCc3ccc(C)cc3)c(=O)oc12` here?
The Potency was inconclusive: 35.5 µM [activator, partial curve].

With `Cn1c(C(=O)Nc2ccc(Cl)cc2)cc2cc(Cl)ccc21` as the molecule, how does the Potency read?
Its Potency is inconclusive: 39.8 µM [activator, single point].

`Nc1c(Cl)ncnc1NCC(O)CO` (stereo not given) was tested. Which Potency did it give?
Its Potency is “inactive”.

Which Potency does the source give for `Cc1nc(C)c(-c2ccc(SCC(=O)Nc3ccc(Cl)c(Cl)c3)nn2)s1` here?
The Potency was inconclusive: 20 µM [activator, partial curve].

How did the Potency turn out when `Cc1ccc(NC(=O)Cn2c(=O)c3cccn3c3ccccc32)cc1` was run?
The Potency was inconclusive: 39.8 µM [activator, single point].

`Cc1ccc(NC(=O)CSc2cc(=O)n(C)c3ccc(Cl)cc23)c(Br)c1` was tested. Which Potency did it give?
The Potency was inconclusive: 39.8 µM [activator, single point].

For `Cc1ccc2[nH]c(C(=O)Nc3ccc(F)cc3)cc2c1`, which Potency is on record?
The Potency was inconclusive: 39.8 µM [activator, single point].

How did the Potency turn out when `CCOc1ccc(-n2c(SCC(=O)Nc3cccc(Cl)c3)nc3c(oc4ccccc43)c2=O)cc1` was run?
Its Potency is “inactive”.

For `Cc1ccccc1Cn1c(=O)n(Cc2ccc3c(c2)OCO3)c(=O)c2oc3ccccc3c21`, which Potency is on record?
The Potency was inconclusive: 39.8 µM [activator, single point].

Which Potency does the source give for `CCCN(c1ccc(C(C)C)cc1)S(=O)(=O)c1ccc2c(c1)CCN2C(=O)CC` here?
Its Potency is “inactive”.

How did the Potency turn out when `N#Cc1c(-c2ccccc2)nc(SCC(=O)Nc2nnc(C(F)(F)F)s2)[nH]c1=O` was run?
Its Potency is active: 17.8 µM.

With `Cc1cc(C)cc(OCC(=O)Nc2nc(-c3ccc(F)cc3)ns2)c1` as the molecule, how does the Potency read?
The Potency was “inactive”.

How did the Potency turn out when `CCOC(=O)C(/C(C)=N/NC(=O)c1ccccc1[N+](=O)[O-])C(C)C` (stereo not given) was run?
Its Potency is “inactive”.

Which Potency does the source give for `CCC(C)NC(=O)COC(=O)c1ccc(Cl)cc1O` (stereo not given) here?
Its Potency is inconclusive: 31.6 µM [activator, single point].

How did the Potency turn out when `O=C(CCn1c(=S)[nH]c2cc3c(cc2c1=O)OCO3)NCc1cccc(Cl)c1` was run?
The Potency was inconclusive: 39.8 µM [activator, single point].
